In the supplement of paper PMC3334620:
In all, about 33,000 sequences were measured (“E-score (-0.5 to 0.5)”: median about -0.01, highest 2% from about 0.26 on). The list shows a part of the results.

Each sequence was assayed against Ste12 (UniProt P13574) (assay: PBM E-score (8-mer binding enrichment) (E-score (-0.5 to 0.5)); higher = stronger / more preferred TF binding; most listed sequences are background and not binding sites). Details: protein concentration: 200 nM; construct: GST-DNA-binding domain.
Procedure, shortened: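 PURExpress in vitro transcription/translation supplied GST-tagged yeast transcription factors, either full-length or DNA-binding domain. Applied at about 100-200 nM to universal all-10-mer Agilent arrays double-stranded by primer extension, the bound protein was detected with fluorescent anti-GST. E-scores, modified Wilcoxon-Mann-Whitney statistics, were given by the Universal PBM Analysis Suite to ungapped eight-base words pooled with their reverse complements after masliner normalisation.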

Sequence	PBM E-score
GAAATTAC	0.176
CGCAGTAA	-0.00333
GCATCGTA	-0.108
AGTTCGGG	0.0926
GCAGTCTA	-0.0872
GCGAACGC	-0.0675
CAGCTTGC	-0.0975
CACTGTTC	0.0569
TAAGTTCA	0.151
CTAGCAGC	0.0464
ATATACAG	0.143
ATGTTACA	0.297
CCAGATTA	0.113
ACTAGTTC	0.0193
ACCCCTTG	-0.176
AAAAGTAC	0.154
GGTTAGTA	0.0303
ACGGGCGG	0.0155
AAGTTTCT	0.213
ATCCGTCA	-0.0362
TCAGCAAA	0.125
ATTTCCTA	0.151
AAGCTTTC	0.0154
CAAGCCGG	0.123

Sequence	PBM E-score
TCGACTCA	0.092
ACGCCTAT	-0.132
CGCGACCG	0.115
GAGAGCGC	-0.102
GCTAAGAA	0.0183
ACCATACA	0.0187
CGTAAGAG	-0.0457
CGTTCGTA	0.0776
ACGTACCG	-0.0992
GAATGATC	0.00293
AGGTACCT	-0.353
CCTGAATC	0.132
TATGGAGA	0.0138
CTTAGCAC	-0.0994
GCTATAAA	0.139
GTTGTTAA	0.23
AGTTAGTA	0.0408
ACTGCTAC	-0.0429
AGCCGGCT	0.042
AGGATCTG	-0.0723
CTTAGCCC	-0.0774
GACGAAAA	0.238
GGTTTCCA	-0.0565
CGTTAGCA	-0.00614

Sequence	PBM E-score
AGCATCGG	-0.158
ACACGGAA	0.114
CGGGCAAA	-0.043
AGGCTTTA	-0.067
CAGAGCCA	-0.0745
ATCCTTAC	0.0612
ATAGATGA	0.0748
ATCGATAA	0.0819
ACCCGTGG	-0.163
GTTTTGGA	0.218
CTCGACAA	-0.0192
CAATATGG	0.0197
AACCTACG	-0.0482
ACTATGTA	0.124
ATGACTTG	0.0878
ACTCCAAT	-0.0179
GCGTGAAA	0.25
TCCTCCAA	0.132
CTGAACTC	-0.108
ATGACTGC	-0.15
GAGTGTGC	-0.0443
GTGCGATA	0.0306
CTGGCAAA	0.139
ATCTTCGA	0.0611

Sequence	PBM E-score
AATACCCG	0.117
GCCCACGA	-0.0962
AACCGAGC	-0.0297
ATGGCCTC	0.0146
AGCGAGTC	-0.105
AGTGCAAG	0.024
TACATAAA	0.14
GAGCGCCC	0.0499
CACAATTC	0.127
CCTAGGGA	-0.184
GAGAATGC	-0.118
CCCCAAGC	0.176
CGGCCGAG	0.0334
ACAACGCC	0.0444
TCAATAGA	-0.0351
AGTCTCCC	-0.0537
AGCGGACG	0.129
CTCTTCGA	-0.152
CCGCGAGG	-0.0556
TCAATTCA	0.0749
GCCTCCTA	-0.166
GGGCGAGA	-0.113
